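Assay format: 96-well plates, 48-hour exposure. GI50 is the concentration that inhibits growth by half. TGI denotes the concentration required for complete inhibition of growth.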 A value given as a limit tells only on which side of the number the result lay.

The subject of this experiment is NCI-H322M lung. Nature of the experiment: NCI anticancer screen, dose series, 48 h.
As for `O=C(N=Nc1c(O)[nH]c2ccc(Cl)cc12)c1ccc2nc(-c3ccc(Cl)cc3)[nH]c2c1`, the GI50 is 13.9 µM and the TGI was > 57.7 µM.

As for `Cn1cc(-c2cc(N)n3nc(-c4cn(C)c5ncc(Br)cc45)cc3n2)c2cc(Br)cnc21`, the GI50 was 11.6 µM and the TGI came out at 35.4 µM.

In the case of `O=C(CN1CCN(c2ncnc3c2cnn3-c2ccccc2)CC1)Nc1nncs1`, the GI50 was 14.4 µM and the TGI turned out to be 27.5 µM.

The record behind these values is PubChem BioAssay (NCI).
